# Measured values published in the supplement of paper PMC10502849.
# The other results are listed elsewhere or left out. Many values rest on one well or one pass, so single values are uncertain.
# Legend:
# [1] = test system: H9 teratoma-derived LAM model cells, TSC2-/-; assay: percent SyTOX+ dead cells; higher = more cytotoxic; conditions: 5 µM, treatment time 72 h, culture: 3D hyaluronic acid hydrogel
# [2] = test system: H9 teratoma-derived LAM model cells, WT; assay: percent SyTOX+ dead cells; higher = more cytotoxic; conditions: 5 µM, treatment time 72 h, culture: 3D hyaluronic acid hydrogel, genotype: WT
# [3] = test system: H9 teratoma-derived LAM model cells, TSC2-/-; assay: percent of cells invaded past median invasion distance of vehicle control; LAM is lymphangioleiomyomatosis; the cells come from teratomas of the human stem cell line H9; higher = more invasion; extreme values may be limits of the assay; conditions: 5 µM, treatment time 72 h, culture: 3D hyaluronic acid hydrogel
# [4] = test system: H9 teratoma-derived LAM model cells, WT; assay: as above; conditions: 5 µM, treatment time 72 h, culture: 3D hyaluronic acid hydrogel, genotype: WT
# 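For percent SyTOX+ dead cells in this document: cells seeded atop a hyaluronic acid gel crosslinked via MMP-cleavable peptides, containing vitronectin peptides and methylcellulose, imaged live by high-content microscopy with automated analysis, one technical replicate per compound.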
# 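For percent of cells invaded past median invasion distance of vehicle control in this document: live cells imaged by high content microscopy and scored with in-house automated image analysis, one technical replicate per compound in each genotype and rapamycin condition.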
Compound,percent SyTOX+ dead cells ([1]; rapamycin 0 nM),percent SyTOX+ dead cells ([1]; rapamycin 20 nM),percent SyTOX+ dead cells ([2]; rapamycin 0 nM),percent SyTOX+ dead cells ([2]; rapamycin 20 nM),percent ([3]; rapamycin 0 nM),percent ([3]; rapamycin 20 nM),percent ([4]; rapamycin 0 nM),percent ([4]; rapamycin 20 nM)
"C[C@]12CC[C@H](O)CC1=CC[C@@H]1[C@@H]2CC[C@]2(C)C(c3cccnc3)=CC[C@@H]12 [Abiraterone, CB-7598]",9.96%,15%,11.8%,7.48%,37.6%,43.4%,46.1%,34.8%
COc1cc2nc(N3CCCN(C)CC3)nc(NC3CCN(Cc4ccccc4)CC3)c2cc1OC,11.3%,7.44%,13.3%,5.75%,86.7%,71.2%,45.1%,31.4%
Nc1cc(F)ccc1NC(=O)c1ccc(CNC(=O)/C=C/c2cccnc2)cc1,12.3%,15.5%,16.4%,15.1%,54.3%,37.6%,56.3%,59%
O=C(O)C(Cc1c[nH]c2ccccc12)N1C(=O)c2ccccc2C1=O (stereo not given),5.11%,10.9%,11.6%,8.38%,93.8%,25.2%,70.1%,33.5%
Cc1cc(-c2ccc(CC(=O)Nc3ccc(-c4cccnc4)cc3)cc2)ccn1,4.48%,4.81%,6.35%,12.4%,38.3%,25.4%,12.7%,15.5%
Cc1cccc(-c2[nH]c(C(C)(C)C)nc2-c2ccc3nccnc3c2)n1,4.41%,5.83%,9.28%,13.5%,92.5%,82.9%,80.6%,29.7%
Cn1cc(-c2ccc3nnc(C(F)(F)c4ccc5ncccc5c4)n3n2)cn1,8.05%,11.2%,9.57%,6.69%,18.2%,18%,13.3%,17.9%
NC1(C(=O)N[C@@H](CCO)c2ccc(Cl)cc2)CCN(c2ncnc3[nH]ccc23)CC1,2.84%,8.24%,14.7%,9.96%,33.2%,17.6%,30.4%,6.13%
O=C(Nc1c[nH]nc1-c1nc2ccc(CN3CCOCC3)cc2[nH]1)NC1CC1,56.1%,70%,69.2%,73.1%,3.54%,1.52%,0%,0%
Cc1nc(N)sc1-c1ccnc(Nc2ccc(N3CCOCC3)cc2)n1,31.9%,30.2%,67.7%,58.7%,5.88%,6.6%,0.77%,0%
O=C(Nc1cccc(Cl)c1)Nc1ncc(CCNc2ncnc3ccsc23)s1,31.3%,18.2%,39.4%,20.7%,74.8%,51.2%,18.1%,29.6%
CN(C)C(=S)NN=C(c1ccccn1)c1ccccn1,14.3%,22%,37.1%,30.1%,12.6%,16%,5.91%,10.2%
N#Cc1c(NC(=O)c2cccc3ccccc23)sc2c1CCCC2,40.8%,39%,36%,40.6%,3.2%,0.56%,7.36%,8.49%
Nc1cc(N)c(N)cc1N [FAK Inhibitor 14],15.2%,7.36%,18.2%,18%,39%,36.2%,2.35%,30.1%
COc1cc2c(NC3CCN(C(C)C)CC3)nc(C3CCCCC3)nc2cc1OCCCN1CCCC1,13.6%,8.98%,13.1%,11.5%,86.5%,28.1%,47.1%,60.4%
Cn1cc(-c2ccc3nnc(Sc4ccc5ncccc5c4)n3n2)cn1,11.2%,5.91%,11.2%,6.65%,31.9%,43.2%,19.3%,41%
CN(C)CC(C)(C)CNc1nn2c(-c3ccccc3)nnc2cc1C1CCC1,6.52%,8.13%,15.1%,6.19%,29.4%,20.7%,17.9%,27.9%
Nc1ccc(-c2cccc3c(=O)cc(N4CCOCC4)oc23)cc1,16%,19.9%,23.1%,17.3%,48.7%,43.3%,35.4%,29.5%
C=Cc1cc(O)cc2nc(-c3ccc(O)c(F)c3)oc12,6.22%,14.3%,9.97%,7.02%,59.1%,29%,19.9%,14.5%
NC(=O)Nc1sc(-c2ccc(F)cc2)cc1C(N)=O,5.93%,20%,43.1%,22.3%,22.9%,23.6%,0%,6.25%
NS(=O)(=O)c1ccc(Nc2nc(OCC3CCCCC3)c3[nH]cnc3n2)cc1,22.6%,19.1%,11.2%,12.9%,8.49%,19.1%,1.12%,3.68%
O=C(C=Cc1ccccc1)NC(NC(=S)Nc1ccc(Cl)cc1)C(Cl)(Cl)Cl (stereo not given),13.5%,10.1%,18.1%,13.3%,76.8%,46.6%,15%,34.7%
OCCC#Cc1nc(-c2ccc(F)cc2)c(-c2ccncc2)n1CCCc1ccccc1,10.5%,7.77%,10.4%,11.4%,22.1%,13.4%,21.7%,18.5%

Compound,percent SyTOX+ dead cells ([1]; rapamycin 0 nM),percent SyTOX+ dead cells ([1]; rapamycin 20 nM),percent SyTOX+ dead cells ([2]; rapamycin 0 nM),percent SyTOX+ dead cells ([2]; rapamycin 20 nM),percent ([3]; rapamycin 0 nM),percent ([3]; rapamycin 20 nM),percent ([4]; rapamycin 0 nM),percent ([4]; rapamycin 20 nM)
CCCNC(=O)Nc1ccc(Oc2ncnc3cc(OC)c(OC)cc23)cc1Cl,4.38%,6.3%,10.5%,18.3%,91.2%,44.1%,81.8%,21.3%
"CC[C@@H]1C(=O)N(C)c2cnc(Nc3ccc(C(=O)NC4CCC(N5CCN(CC6CC6)CC5)CC4)cc3OC)nc2N1C(C)C (stereo not given in full) [BI-6727, volasertib]",50.5%,26.2%,40.2%,31%,10.7%,43.8%,16.8%,31%
O=C(CO)N1CCC(c2n[nH]c(-c3ccc(Cl)cc3)c2-c2ccncn2)CC1,5.38%,4.56%,10.9%,5.01%,24.4%,24.5%,17.7%,34.3%
CCOC(=O)CCNc1cc(N2CCc3ccccc3CC2)nc(-c2ccccn2)n1,14.6%,14.9%,12.7%,11.8%,28.2%,36.8%,46.6%,26.4%
"Cc1[nH]c2ccccc2c1CCNCc1ccc(/C=C/C(=O)NO)cc1 [LBH-589, Panobinostat, NVP-LBH589, LBH589]",25.1%,21.6%,24.2%,3.99%,2.95%,4.1%,0%,3.68%
O=C(NC[C@H](O)CO)c1ccncc1Nc1ccc(I)cc1F,14.2%,6.01%,18.7%,23%,70.3%,96.8%,47.2%,56.9%
Cn1c(=O)n(-c2ccc(C(C)(C)C#N)cc2)c2c3cc(-c4cnc5ccccc5c4)ccc3ncc21,15%,9.39%,22.6%,13.8%,13.2%,19.9%,13%,21.8%
"O=C(/C=C/c1ccc(O)c(O)c1)OCCc1ccccc1 [Caffeic acid phenethyl ester, CAPE]",14.7%,8.21%,15.2%,17.7%,5.08%,3.59%,9.09%,12.1%
CC(C)(C)Cn1c(N)nc2ccc(-c3[nH]c(C(C)(C)C)nc3-c3ccc(F)cc3)nc21,7.66%,3.74%,20.5%,10.4%,89%,62.9%,59.2%,13.3%
Oc1nc(-c2ccc(C(F)(F)F)cc2)nc2c1CSCC2,10.1%,4.93%,2.9%,2.82%,42.6%,23.1%,61.7%,54.1%
CN1CCC(CNc2ccc3ncc(-c4cccc(OC(F)(F)F)c4)n3n2)CC1,9.3%,16.1%,25.1%,10.9%,36.4%,42%,1.03%,9.09%
Cc1ccc2c(=O)c3ccccc3n(CCCN)c2c1C,9.94%,9.62%,33.6%,10.5%,9.32%,9.21%,1.77%,14.5%
COc1ccc(S(=O)(=O)N(C(C)=O)c2ccccc2/C=C/c2cc[n+]([O-])cc2)cc1,69.3%,60.9%,67.2%,61.7%,11.5%,13.8%,3.79%,1.68%
CC1(C)CCC(CN2CCN(c3ccc(C(=O)NS(=O)(=O)c4ccc(NCC5CCOCC5)c([N+](=O)[O-])c4)c(Oc4cnc5[nH]ccc5c4)c3)CC2)=C(c2ccc(Cl)cc2)C1,8.72%,11.6%,9.63%,8.91%,46.3%,32.3%,37.7%,43.6%
Nc1ncnc2c1c(-c1cccc(OCc3ccccc3)c1)cn2C1CC(CN2CCC2)C1 (stereo not given),26.7%,29.7%,36.8%,36.9%,1.78%,2.29%,9.54%,9.5%
Cc1cc2c(F)c(Oc3ncnn4cc(OC[C@@H](C)O)c(C)c34)ccc2[nH]1,15.9%,22.9%,18.5%,13.9%,22%,14.7%,6.52%,11.4%
Cc1[nH]c(/C=C2\C(=O)Nc3ccc(S(=O)(=O)Cc4c(Cl)cccc4Cl)cc32)c(C)c1C(=O)N1CCC[C@@H]1CN1CCCC1,98.9%,99.5%,98.9%,98.5%,24.5%,7.21%,23.3%,8.29%
CS(=O)(=O)N1CCN(Cc2cc3nc(-c4cccc5[nH]ncc45)nc(N4CCOCC4)c3s2)CC1,38.8%,37.3%,74.7%,69.3%,10.5%,8.29%,0%,0%
"CC(C)[C@H](CO)Nc1nc(Nc2ccc(C(=O)O)c(Cl)c2)c2ncn(C(C)C)c2n1 [Purvalanol B, NG 95]",4.49%,10.9%,15%,7.77%,20%,37.6%,50%,38.4%
CC(C)CCN1c2nc(Nc3cc(F)c(O)c(F)c3)ncc2N(C)C(=O)C1C (stereo not given),58%,53.1%,45.5%,40%,3.36%,7.48%,1.85%,3.17%
Cc1ccc(F)c(NC(=O)Nc2ccc(-c3cccc4[nH]nc(N)c34)cc2)c1,24.3%,9.68%,25.2%,9.79%,15%,36.9%,14.6%,31.8%
CCN1CCN(c2ccc(Nc3cc(N(C)C(=O)Nc4c(Cl)c(OC)cc(OC)c4Cl)ncn3)cc2)CC1,8.52%,1.46%,17.2%,7.25%,96.6%,74.5%,90.5%,51.3%
